Results reported in a collection of fitness landscapes (doi:10.1016/j.celrep.2020.107928).
The full ranking holds about 81,000 sequences; the median of “one-hybrid fitness for binding NBS DNA” is about -0.1, and the highest 2% start at about 0.36. Some of the results follow.

B1: Caulobacter ParB omega fusion; a variant is named by its letters at X, in order, B8GW30 (parent)
chain: MESVVVGEPGMSEGRRGLGRGLSALLGEVDAAPAQAPGEQLGGSREAPIEILQRNPDQPRRTFREEDLEDLSNSIREKGVLQPILVRPSPDTAGEYQIVAGERAWRAAQRAGLKTVPIMVRELDDLAVLEIGIIENVQRADLNVLEEALSYKVLMEKFERTQENIAQTIGKSXSHVANXMRLLXLPDEVQSYLVSGELTAXHARAIAAAADPVALAKQIIEGGLSVRETEALARKAPNLSAGKSKGGRPPRVKDTDTQALESDLSSVLGLDVSIDHRGSTGTLTITYATLEQLDDLCNRLTRGI

Variants of: B1
Assay: one-hybrid fitness for binding NBS DNA (the Noc-binding site; scaled: cognate 1, non-cognate 0); higher = stronger binding
Conditions: with NBS DNA site
Procedure, shortened: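 Values were rescaled so that cognate is 1 and non-cognate is 0. Each is a fitness, the log change in a variant's read ratio to wild type from Illumina reads of plasmids before and after selection, with three replicate libraries pooled and variants under 10 reads dropped. Selection of the Caulobacter ParB libraries, four specificity codons randomised, used E. coli USO with a HIS3 reporter, site 19 bp from the promoter, on M9-minus-histidine with 0.1 mM IPTG and 5 mM 3-AT for 48 hours at 37°C.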

Variant	one-hybrid fitness for binding NBS DNA
SCAK	≤ 0.2
YYES	≤ 0.2
IAPW	≤ 0.2
GFGR	≤ 0.2
SAVT	≤ 0.2
KYDC	≤ 0.2
VMMF	≤ 0.2
WWSA	≤ 0.2
HDML	≤ 0.2
PKHQ	≤ 0.2
LAFR	≤ 0.2
RLMA	≤ 0.2
CPSI	≤ 0.2
VRVN	≤ 0.2
ANIR	≤ 0.2
KERG	≤ 0.2
HAEC	≤ 0.2
RWAN	≤ 0.2
YVTF	≤ 0.2
SDKC	≤ 0.2
WYGT	≤ 0.2
YDES	≤ 0.2
LSYE	≤ 0.2
WTAT	≤ 0.2

Variant	one-hybrid fitness for binding NBS DNA
CMLS	≤ 0.2
TPDA	≤ 0.2
RDEF	≤ 0.2
WLGS	≤ 0.2
HTSI	≤ 0.2
FYPY	≤ 0.2
NNLL	≤ 0.2
DLCA	≤ 0.2
GCRR	≤ 0.2
FTWS	≤ 0.2
VYKQ	≤ 0.2
SSLW	≤ 0.2
MHPT	≤ 0.2
PWRG	≤ 0.2
HLRH	≤ 0.2
EYHN	≤ 0.2
MYIR	≤ 0.2
TQKF	≤ 0.2
LIKF	≤ 0.2
LYMN	≤ 0.2
VSLW	≤ 0.2
RVPF	≤ 0.2
HCVK	≤ 0.2
ERQR	≤ 0.2

Variant	one-hybrid fitness for binding NBS DNA
YLIG	≤ 0.2
HVKG	≤ 0.2
TTHK	≤ 0.2
QYMI	≤ 0.2
PKYP	≤ 0.2
YDTN	≤ 0.2
TLPC	≤ 0.2
SPQC	≤ 0.2
LDDG	≤ 0.2
IHRR	≤ 0.2
CHSA	≤ 0.2
QKPH	≤ 0.2
LCMG	≤ 0.2
RVRN	≤ 0.2
HKSV	≤ 0.2
ECSR	≤ 0.2
ALSN	≤ 0.2
YPRD	≤ 0.2
ACPR	≤ 0.2
HPKR	≤ 0.2
CFLT	≤ 0.2
PHTC	≤ 0.2
NDYS	≤ 0.2
CAIM	≤ 0.2

Variant	one-hybrid fitness for binding NBS DNA
IAAD	≤ 0.2
TGHL	≤ 0.2
NANV	≤ 0.2
AVKD	≤ 0.2
YLTD	≤ 0.2
ATVT	≤ 0.2
QMDE	≤ 0.2
TQFD	≤ 0.2
QLHF	≤ 0.2
NRQG	≤ 0.2
SEAA	≤ 0.2
SLGQ	≤ 0.2
YFTT	≤ 0.2
RAVE	≤ 0.2
RDFY	≤ 0.2
YEGF	≤ 0.2
QLHD	≤ 0.2
ASCR	≤ 0.2
VVCV	≤ 0.2
RTPI	≤ 0.2
SCRH	≤ 0.2
WDES	≤ 0.2
AGRW	≤ 0.2
ETNA	≤ 0.2

Variant	one-hybrid fitness for binding NBS DNA
PDIN	≤ 0.2
LTMN	≤ 0.2
EPEG	≤ 0.2
RWPP	≤ 0.2
QRMC	0.333
AKGN	≤ 0.2
AHVL	≤ 0.2
ATPH	≤ 0.2
SGDW	≤ 0.2
SIAC	≤ 0.2
QPGH	≤ 0.2
TSPW	≤ 0.2
QCVI	≤ 0.2
LLNT	≤ 0.2
WPIP	≤ 0.2
VQGG	≤ 0.2
HCDI	≤ 0.2
LWRT	≤ 0.2
SMCG	≤ 0.2
KTRD	≤ 0.2
RQNM	≤ 0.2
ECPR	≤ 0.2
SMFI	≤ 0.2
RMLG	≤ 0.2

Variant	one-hybrid fitness for binding NBS DNA
GPVY	≤ 0.2
LPPY	≤ 0.2
QGAS	≤ 0.2
PHHT	≤ 0.2
TGTK	≤ 0.2
LDCW	≤ 0.2
NTDG	≤ 0.2
NRMT	≤ 0.2
PKSL	≤ 0.2
PTEE	≤ 0.2
ICHW	≤ 0.2
NFKG	≤ 0.2
EHAV	≤ 0.2
RFTY	≤ 0.2
LHAP	≤ 0.2
QDLR	≤ 0.2
QCIW	≤ 0.2
NIAC	≤ 0.2
EEMF	≤ 0.2
TAKS	≤ 0.2
QRFP	0.201
PRCK	≤ 0.2
QYYE	≤ 0.2
TVHY	≤ 0.2

Variant	one-hybrid fitness for binding NBS DNA
HNDM	≤ 0.2
THRS	≤ 0.2
PSMA	≤ 0.2
IMYG	≤ 0.2
FPLH	≤ 0.2
PGTK	≤ 0.2
TENP	≤ 0.2
LYGC	≤ 0.2
ERPA	≤ 0.2
FQAT	≤ 0.2
VYHN	≤ 0.2
FRIS	≤ 0.2
QLWN	≤ 0.2
NHFL	≤ 0.2
LPNL	≤ 0.2
SVSH	≤ 0.2
TRPA	≤ 0.2
RFVK	≤ 0.2
GNKR	≤ 0.2
VHPR	≤ 0.2
DQQL	≤ 0.2
QRQV	0.397
PRPL	≤ 0.2
KGIG	≤ 0.2

Variant	one-hybrid fitness for binding NBS DNA
KYTS	≤ 0.2
MKYG	≤ 0.2
RHWS	≤ 0.2
TYNV	≤ 0.2
VHRA	≤ 0.2
GTTE	≤ 0.2
RDFK	≤ 0.2
ITGG	≤ 0.2
VSLT	≤ 0.2
DDVI	≤ 0.2
SGRQ	≤ 0.2
NEHP	≤ 0.2
QKDF	≤ 0.2
TKRL	≤ 0.2
GVCL	≤ 0.2
DNWC	≤ 0.2
VTVS	≤ 0.2
LHYD	≤ 0.2
NYVS	≤ 0.2
LPMY	≤ 0.2
YEKS	≤ 0.2
EVLC	≤ 0.2
WTMR	≤ 0.2
HCTS	≤ 0.2

Variant	one-hybrid fitness for binding NBS DNA
HITN	≤ 0.2
WRDK	≤ 0.2
QAKQ	0.408
SFDY	≤ 0.2
PAYA	≤ 0.2
AWPN	≤ 0.2
QKRP	0.261
ASLA	≤ 0.2
CNSL	≤ 0.2
FGRG	≤ 0.2
SDAR	≤ 0.2
LNGN	≤ 0.2
SMAL	≤ 0.2
DSGT	≤ 0.2
FDAR	≤ 0.2
SLPN	≤ 0.2
KQFT	≤ 0.2
RDCF	≤ 0.2
QNNW	≤ 0.2
SPYH	≤ 0.2
DMAC	≤ 0.2
RDSE	≤ 0.2
VGDC	≤ 0.2
DLND	≤ 0.2

Variant	one-hybrid fitness for binding NBS DNA
HLGG	≤ 0.2
VSPK	≤ 0.2
GKQW	≤ 0.2
DLTT	≤ 0.2
IGGM	≤ 0.2
KCGG	≤ 0.2
GYMC	≤ 0.2
VVSY	≤ 0.2
IVFR	≤ 0.2
CSSC	≤ 0.2
QENL	≤ 0.2
AFER	≤ 0.2
FSIG	≤ 0.2
HPPG	≤ 0.2
STAM	≤ 0.2
LKAY	≤ 0.2
VLLL	≤ 0.2
YHQT	≤ 0.2
HEPK	≤ 0.2
HKRT	≤ 0.2
KNHM	≤ 0.2
AMTE	≤ 0.2
STDE	≤ 0.2
TCSG	≤ 0.2

Variant	one-hybrid fitness for binding NBS DNA
FSCS	≤ 0.2
RYRH	0.339
SHRT	≤ 0.2
GSLT	≤ 0.2
NALK	≤ 0.2
DMQL	≤ 0.2
QFTS	≤ 0.2
LGKN	≤ 0.2
HPHS	≤ 0.2
HFTG	≤ 0.2
KCHW	≤ 0.2
DTLF	≤ 0.2
SDCD	≤ 0.2
RGWY	≤ 0.2
RAYG	≤ 0.2
KNSH	≤ 0.2
TGIR	≤ 0.2
APSY	≤ 0.2
PGPW	≤ 0.2
LWSD	≤ 0.2
PTAM	≤ 0.2
LLRD	≤ 0.2
DTSN	≤ 0.2
VWMT	≤ 0.2

Variant	one-hybrid fitness for binding NBS DNA
ISAT	≤ 0.2
FGLT	≤ 0.2
KTFS	≤ 0.2
CTTA	≤ 0.2
GDNM	≤ 0.2
ERQC	≤ 0.2
MSKR	≤ 0.2
NQLD	≤ 0.2
SYIT	≤ 0.2
IHSW	≤ 0.2
RQIR	≤ 0.2
VFPL	≤ 0.2
VESC	≤ 0.2
ITVA	≤ 0.2
RVQH	≤ 0.2
QHGF	≤ 0.2
SPVD	≤ 0.2
LQGK	≤ 0.2
PVCY	≤ 0.2
QMKF	0.3
SPKH	≤ 0.2
GPPM	≤ 0.2
QMLH	≤ 0.2
QYTA	0.251

Variant	one-hybrid fitness for binding NBS DNA
IIIV	≤ 0.2
GSPQ	≤ 0.2
WTKS	≤ 0.2
LYSF	≤ 0.2
TYYR	≤ 0.2
MGRM	≤ 0.2
EHHG	≤ 0.2
KVIC	≤ 0.2
YGGG	≤ 0.2
VSAG	≤ 0.2
FLGP	≤ 0.2
LPYE	≤ 0.2
VITV	≤ 0.2
LCIK	≤ 0.2
RYVN	≤ 0.2
HSMK	≤ 0.2
LTCL	≤ 0.2
VSVC	≤ 0.2
